Source: the supplement of paper PMC8728848
The other results are listed elsewhere or left out.

Experiments:
Assay in all cases: glycan array binding signal (z-score within array); higher = stronger binding
Conditions in all cases: glycan notation: IUPAC condensed, linker removed
[1] = target: Fuc(a1-3)[Gal3S(b1-4)]GlcNAc
How it was run: (§1)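 From the Consortium for Functional Glycomics database, 3228 arrays were curated, keeping only those whose protein sequence was available. Binding is given as a within-array Z-score averaged across arrays sharing a protein sequence and across linkers. Negative Z-scores can be read as non-binding.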

[2] = target: Fuc(a1-3)[Gal3S(b1-4)]GlcNAc6S
How it was run: as §1

[3] = target: Fuc(a1-3)[GalNAc(b1-4)]GlcNAc
How it was run: as §1

[4] = target: Fuc(a1-3)[GalNAc(b1-4)]GlcNAc6S
How it was run: as §1

[5] = target: Fuc(a1-4)GlcNAc
How it was run: as §1

[6] = target: Fuc(b1-3)GlcNAc
How it was run: as §1

[7] = target: Gal(a1-2)Gal
How it was run: as §1

[8] = target: Gal(a1-3)Gal
How it was run: as §1

[9] = target: Gal(a1-3)Gal(b1-3)GlcNAc
How it was run: as §1

[10] = target: Gal(a1-3)Gal(b1-3)GlcNAc(b1-2)Man
How it was run: as §1

[11] = target: Gal(a1-3)Gal(b1-3)GlcNAc(b1-2)Man(a1-3)[Gal(a1-3)Gal(b1-3)GlcNAc(b1-2)Man(a1-6)]Man(b1-4)GlcNAc(b1-4)GlcNAc
How it was run: as §1

[12] = target: Gal(a1-3)Gal(b1-3)GlcNAc(b1-3)GalNAc
How it was run: as §1

[13] = target: Gal(a1-3)Gal(b1-3)GlcNAc(b1-6)GalNAc
How it was run: as §1

[14] = target: Gal(a1-3)Gal(b1-3)[Fuc(a1-4)]GlcNAc(b1-2)Man(a1-3)[Gal(a1-3)Gal(b1-3)[Fuc(a1-4)]GlcNAc(b1-2)Man(a1-6)]Man(b1-4)GlcNAc(b1-4)GlcNAc
How it was run: as §1

[15] = target: Gal(a1-3)Gal(b1-4)Glc
How it was run: as §1

[16] = target: Gal(a1-3)Gal(b1-4)GlcNAc
How it was run: as §1

[17] = target: Gal(a1-3)Gal(b1-4)GlcNAc(b1-2)Man
How it was run: as §1

[18] = target: Gal(a1-3)Gal(b1-4)GlcNAc(b1-2)Man(a1-3)[Gal(a1-3)Gal(b1-4)GlcNAc(b1-2)Man(a1-6)]Man(b1-4)GlcNAc(b1-4)GlcNAc
How it was run: as §1

[19] = target: Gal(a1-3)Gal(b1-4)GlcNAc(b1-3)GalNAc
How it was run: as §1

[20] = target: Gal(a1-3)Gal(b1-4)GlcNAc(b1-6)GalNAc
How it was run: as §1

[21] = target: Gal(a1-3)Gal(b1-4)[Fuc(a1-3)]GlcNAc
How it was run: as §1

[22] = target: Gal(a1-3)Gal(b1-4)[Fuc(a1-3)]GlcNAc(b1-2)Man(a1-3)[Gal(a1-3)Gal(b1-4)[Fuc(a1-3)]GlcNAc(b1-2)Man(a1-6)]Man(b1-4)GlcNAc(b1-4)GlcNAc
How it was run: as §1

[23] = target: Gal(a1-3)GalNAc
How it was run: as §1

[24] = target: Gal(a1-3)[Gal(a1-4)]Gal(b1-4)GlcNAc
How it was run: as §1

[25] = target: Gal(a1-4)Gal(b1-3)GlcNAc(b1-2)Man(a1-3)[Gal(a1-4)Gal(b1-3)GlcNAc(b1-2)Man(a1-6)]Man(b1-4)GlcNAc(b1-4)GlcNAc
How it was run: as §1

[26] = target: Gal(a1-4)Gal(b1-4)Glc
How it was run: as §1

[27] = target: Gal(a1-4)Gal(b1-4)GlcNAc
How it was run: as §1

[28] = target: Gal(a1-4)Gal(b1-4)GlcNAc(b1-2)Man(a1-3)[Gal(a1-4)Gal(b1-4)GlcNAc(b1-2)Man(a1-6)]Man(b1-4)GlcNAc(b1-4)GlcNAc
How it was run: as §1

[29] = target: Gal(a1-4)Gal(b1-4)GlcNAc(b1-3)Gal(b1-4)Glc
How it was run: as §1

[30] = target: Gal(a1-4)GlcNAc
How it was run: as §1

[31] = target: Gal(a1-6)Glc
How it was run: as §1

[32] = target: Gal(b1-2)Gal
How it was run: as §1

[33] = target: Gal(b1-3)Gal
How it was run: as §1

[34] = target: Gal(b1-3)Gal(b1-4)GlcNAc
How it was run: as §1

[35] = target: Gal(b1-3)GalNAc
How it was run: as §1

[36] = target: Gal(b1-3)GalNAc(a1-3)[Fuc(a1-2)]Gal(b1-4)Glc
How it was run: as §1

[37] = target: Gal(b1-3)GalNAc(a1-3)[Fuc(a1-2)]Gal(b1-4)GlcNAc
How it was run: as §1

B1: Epa1to9 (Candida glabrata) (protein)
chain: MGSSHHHHHHSSGLVPRGSHMTSSNDISLASKDPTTFPLGCSPDITTPKKGLSMELYSYDFRKKGSYPCWDAAYLDPNYPRTGYKSHRLLAKVDGVTGNINFYYHATKGCTPQLGHLPASYNYPKPLTMTNFTMLLYGYFRPKVTGFHTFTISADDLLFVNFGAGNAFDCCRRDSSADHFGNYQAYAIWGSKTAKDELTVHLDAGVYYPIRLFYNNRDYHGALSFTFKTESNENTVSDFSEYFFSLDDTEEGCPGLISYD
[1]
  glycan array binding signal (z-score): -0.308
[2]
  glycan array binding signal (z-score): 0.005
[3]
  glycan array binding signal (z-score): -0.34
[4]
  glycan array binding signal (z-score): -0.365
[5]
  glycan array binding signal (z-score): -0.346
[6]
  glycan array binding signal (z-score): -0.348
[7]
  glycan array binding signal (z-score): -0.182
[8]
  glycan array binding signal (z-score): 0.432
[9]
  glycan array binding signal (z-score): 0.327
[10]
  glycan array binding signal (z-score): 0.245
[11]
  glycan array binding signal (z-score): -0.189
[12]
  glycan array binding signal (z-score): 0.002
[13]
  glycan array binding signal (z-score): 0.165
[14]
  glycan array binding signal (z-score): -0.268
[15]
  glycan array binding signal (z-score): 0.06
[16]
  glycan array binding signal (z-score): 0.858
[17]
  glycan array binding signal (z-score): 0.008
[18]
  glycan array binding signal (z-score): 0.227
[19]
  glycan array binding signal (z-score): 0.082
[20]
  glycan array binding signal (z-score): 0.192
[21]
  glycan array binding signal (z-score): 0.318
[22]
  glycan array binding signal (z-score): -0.204
[23]
  glycan array binding signal (z-score): 0.224
[24]
  glycan array binding signal (z-score): 0.179
[25]
  glycan array binding signal (z-score): 0.962
[26]
  glycan array binding signal (z-score): 0
[27]
  glycan array binding signal (z-score): 1.39
[28]
  glycan array binding signal (z-score): 0.928
[29]
  glycan array binding signal (z-score): 0.39
[30]
  glycan array binding signal (z-score): 1.94
[31]
  glycan array binding signal (z-score): 0.731
[32]
  glycan array binding signal (z-score): 1.57
[33]
  glycan array binding signal (z-score): 2.22
[34]
  glycan array binding signal (z-score): 4.22
[35]
  glycan array binding signal (z-score): 2.83
[36]
  glycan array binding signal (z-score): 2.21
[37]
  glycan array binding signal (z-score): 2.4
